The source gives no read counts; variants with many changes may rest on few reads.
B1: CPEB3 Ribozyme (parent)
chain: UAACAGGGGGCCACAGCAGAAGCGUUCACGUCGCAGCCCCUGUCAGAUUCUGGUGAAUCUGCGAAUUCUGCUGUAUAUCUC

Variants of: B1
Test: self-cleavage, relative activity (ratio to wild type); higher = more cleavage; in vitro, sequencing
In short: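 For each CPEB3 ribozyme variant, relative activity is its cleaved/total read fraction divided by the unmutated ribozyme's. Barcoded error-prone PCR libraries were transcribed by T7 RNA polymerase (5 hours, 37°C) and held in DNase I for 15 min before an EDTA stop, with cleavage occurring throughout. Template-switching reverse transcription and Illumina sequencing were used to read the RNAs. A 5-read minimum applied, and results are the mean of three batches.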
UAACAGGGGGCCACAGCAGAAGCGUUCACGUCGCAGCCCCUGUCAGAUCCUGGUGAACCCGCGAAUUCUGCUGUAUAUCUC gave a self-cleavage of 0.07.
Variant UAACAGGGGGCCACAGCAGAAGCGUUCACGUCGCAGCCCCUGUCAGAUCCUGGUGAACCAGCGAAUUCUGCUGUAUAUCUC has a self-cleavage of 0.16.
With UAACAGGGGGCCACAGCAGAAGCGUUCACGUCGCAGCCCCUGUCAGAUCCUGGCGAAUCUGCGAAUCCUGCUGUAUAUCUC the self-cleavage was 0.25.
In the case of UAACAGGGGGCCACAGCAGAAGCGUUCACGUCGCAGCCCCUGUCAGAUCCUGGUGAACCCGCGAAUUCUGCUGUUUAUCCC, the self-cleavage is reported as 0.1.
UAACAGGGGGCCACAGCAGAAGCGUUCACGUCGCAGCCCCUGUCAGAUCCUGGUGAAUCUGCGAAUACUGCUGUACAUCUC gave a self-cleavage of 0.23.
For UAACAGGGGGCCACAGCAGAAGCGUUCACGUCGCAGCCCCUGUCAGAUGCCGGUGAAUCUGCGAGUUCUGCUGUAUAUCUC, the self-cleavage was 0.31.
Variant UAACAGGGGGCCACAGCAGAAGCGUUCACGUCGCAGCCCCUGUCAGAUCCUGGUGAAUCUGCGAACUCUGCUGAAUAUCUC has a self-cleavage of 0.6.
For UAACAGGGGGCCACAGCAGAAGCGUUCACGUCGCAGCCCCUGUCAGAUGCAGGUGAAUCCGCGAAUUCUGCUGUAUAUCAC, the self-cleavage was 0.1.
With UAACAGGGGGCCACAGCAGAAGCGUUCACGUCGCAGCCCCUGUCAGAUCCUGGUGAACCUGCGAAUUCUGCUAUAUAUCUC the self-cleavage was 0.27.
In the case of UAACAGGGGGCCACAGCAGAAGCGUUCACGUCGCAGCCCCUGUCAGAUGCAGGUGAAUCUGCGAAUUCUGCUGUAAAUCUC, the self-cleavage is reported as 0.33.
For UAACAGGGGGCCACAGCAGAAGCGUUCACGUCGCAGCCCCUGUCAGAUCCUGGUGAAUCUGCGAAUUCUGCUGUAUAACUU, the self-cleavage was 0.38.
Work on UAACAGGGGGCCACAGCAGAAGCGUUCACGUCGCAGCCCCUGUCAGAUCCUGGUGAAUCAGCGAAUUAUGCUGUAUAUCUC yielded a self-cleavage of 0.36.
Work on UAACAGGGGGCCACAGCAGAAGCGUUCACGUCGCAGCCCCUGUCAGAUCCUGGUGAAUCAGCGAAUUCUGCUGUAUAUCUU yielded a self-cleavage of 0.17.
In the case of UAACAGGGGGCCACAGCAGAAGCGUUCACGUCGCAGCCCCUGUCAGAUUGUGGCGAAUCUGCUAAUUCUGCUGCAUAUCUC, the self-cleavage is reported as 1.01.
With UAACAGGGGGCCACAGCAGAAGCGUUCACGUCGCAGCCCCUGUCAGAUCCUGGAGAAUCUGCGAAUCCUGCCGUAUAUCUC the self-cleavage was 0.24.
In the case of UAACAGGGGGCCACAGCAGAAGCGUUCACGUCGCAGCCCCUGUCAGAUCCUGGUGAAUCUGCGAAUUCUGCUGUAGUUCUC, the self-cleavage is reported as 0.19.
Work on UAACAGGGGGCCACAGCAGAAGCGUUCACGUCGCAGCCCCUGUCAGAUCCUGGCGAAUCUGCGAAUUCUGCCGUAUAUCUC yielded a self-cleavage of 0.21.
UAACAGGGGGCCACAGCAGAAGCGUUCACGUCGCAGCCCCUGUCAGAUUAUGGUGAAUCUACGAAUUCUGCUGAAUAUCUC gave a self-cleavage of 0.71.
UAACAGGGGGCCACAGCAGAAGCGUUCACGUCGCAGCCCCUGUCAGAUUAUGGUGAGCCUGCGAAUUCUGCUGUAUAUCUC gave a self-cleavage of 0.15.
Variant UAACAGGGGGCCACAGCAGAAGCGUUCACGUCGCAGCCCCUGUCAGAUCCUGGUGAAUCUGCGAAUUCUGCUGUAAACCUC has a self-cleavage of 0.57.
For UAACAGGGGGCCACAGCAGAAGCGUUCACGUCGCAGCCCCUGUCAGAUUAUGGUGAAUCUGCGAAUUCUGCCGUAUAUCCC, the self-cleavage was 1.2.
Variant UAACAGGGGGCCACAGCAGAAGCGUUCACGUCGCAGCCCCUGUCAGAUUAUGGUGUAUCUGCGAAUUCUGCAGUAUAUCUC has a self-cleavage of 0.34.
With UAACAGGGGGCCACAGCAGAAGCGUUCACGUCGCAGCCCCUGUCAGAUUACGGUGAAUCUGCGAAUUCCGCUAUAUAUCUC the self-cleavage was 0.94.
With UAACAGGGGGCCACAGCAGAAGCGUUCACGUCGCAGCCCCUGUCAGAUCCUGGCGAAUCUGCGAGUUCUGCUGUAUAUCAC the self-cleavage was 0.11.
UAACAGGGGGCCACAGCAGAAGCGUUCACGUCGCAGCCCCUGUCAGAUGCUGGUCAUUCUGCGAAUUCUGCUGUAUAUCUC gave a self-cleavage of 0.48.
In the case of UAACAGGGGGCCACAGCAGAAGCGUUCACGUCGCAGCCCCUGUCAGAUCCUGGUGAAUCUGCGAACUCCGCUGUAUAUCUC, the self-cleavage is reported as 0.09.
In the case of UAACAGGGGGCCACAGCAGAAGCGUUCACGUCGCAGCCCCUGUCAGAUCCUGGUGAAUCCGCGAAUUCAGCUGUAUAUCUC, the self-cleavage is reported as 0.23.
Work on UAACAGGGGGCCACAGCAGAAGCGUUCACGUCGCAGCCCCUGUCAGAUCCUGGUGAAUCUGCGAACUCUGCCGUAUAUCUC yielded a self-cleavage of 0.33.
In the case of UAACAGGGGGCCACAGCAGAAGCGUUCACGUCGCAGCCCCUGUCAGAUGCUGGUGAAUCUGCGAAUUUUGCCGUAUAUCUC, the self-cleavage is reported as 0.48.
UAACAGGGGGCCACAGCAGAAGCGUUCACGUCGCAGCCCCUGUCAGAUUAUGGUGAAUCUGCGGAUUCUGCUGCAUAUCUC showed a self-cleavage of 1.15.
UAACAGGGGGCCACAGCAGAAGCGUUCACGUCGCAGCCCCUGUCAGAUGCUGGUGAGUCUGCGAAUUCCGCUGUAUAUCUC gave a self-cleavage of 0.36.
UAACAGGGGGCCACAGCAGAAGCGUUCACGUCGCAGCCCCUGUCAGAUUGCGGUGGAUCUGCGAAUUCUGCUGUAUAUCUC showed a self-cleavage of 0.3.
Work on UAACAGGGGGCCACAGCAGAAGCGUUCACGUCGCAGCCCCUGUCAGAUCCUGGUGAAUCCGCGGAUUCUGCUGUAUAUCUC yielded a self-cleavage of 0.33.
For UAACAGGGGGCCACAGCAGAAGCGUUCACGUCGCAGCCCCUGUCAGAUCCUGGUGAAUCCGCGUAUUCUGCUGUAUAUCUC, the self-cleavage was 0.14.
